Results published in PMC4336329 (PLoS ONE, 2015).
Out of some 310,000 compounds screened, about 2,200 (0.71%) showed an effect of 50% or more. The effect is printed as a negative number. This is one part of the list.

target: human ether-à-go-go-related gene (hERG) potassium channel (human, UniProt Q12809); experiment: primary screen, population patch clamp on CHO cells stably expressing hERG
Sequence (Q12809 whole entry, looked up): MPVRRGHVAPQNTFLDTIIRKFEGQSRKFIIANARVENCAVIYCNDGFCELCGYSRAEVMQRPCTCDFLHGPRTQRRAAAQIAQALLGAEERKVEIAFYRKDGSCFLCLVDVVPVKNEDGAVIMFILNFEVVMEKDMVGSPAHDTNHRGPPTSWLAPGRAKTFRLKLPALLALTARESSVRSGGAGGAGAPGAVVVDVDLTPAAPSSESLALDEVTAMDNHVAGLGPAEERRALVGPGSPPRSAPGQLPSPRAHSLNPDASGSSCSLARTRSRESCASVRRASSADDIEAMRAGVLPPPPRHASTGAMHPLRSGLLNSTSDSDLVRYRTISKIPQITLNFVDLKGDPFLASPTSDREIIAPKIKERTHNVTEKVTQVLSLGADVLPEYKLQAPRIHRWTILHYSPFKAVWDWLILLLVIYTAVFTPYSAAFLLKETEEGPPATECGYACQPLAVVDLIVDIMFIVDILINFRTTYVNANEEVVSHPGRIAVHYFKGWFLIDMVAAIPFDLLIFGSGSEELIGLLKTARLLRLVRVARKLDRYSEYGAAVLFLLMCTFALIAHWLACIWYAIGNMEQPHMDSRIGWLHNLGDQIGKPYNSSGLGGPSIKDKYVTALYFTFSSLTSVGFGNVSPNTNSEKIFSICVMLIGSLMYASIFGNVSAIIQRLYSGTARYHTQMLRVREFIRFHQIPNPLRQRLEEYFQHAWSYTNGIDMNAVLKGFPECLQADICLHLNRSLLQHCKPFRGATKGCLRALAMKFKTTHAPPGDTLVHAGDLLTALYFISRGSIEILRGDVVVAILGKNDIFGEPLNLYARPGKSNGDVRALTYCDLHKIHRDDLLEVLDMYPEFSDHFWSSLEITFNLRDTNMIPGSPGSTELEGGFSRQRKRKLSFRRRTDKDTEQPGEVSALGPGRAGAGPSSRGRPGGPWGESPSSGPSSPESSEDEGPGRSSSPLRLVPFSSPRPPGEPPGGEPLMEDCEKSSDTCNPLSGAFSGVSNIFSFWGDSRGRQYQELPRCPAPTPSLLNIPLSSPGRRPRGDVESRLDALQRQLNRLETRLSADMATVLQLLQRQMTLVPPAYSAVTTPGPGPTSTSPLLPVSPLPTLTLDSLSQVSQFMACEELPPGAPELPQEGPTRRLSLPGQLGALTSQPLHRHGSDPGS

Row | Structure (SMILES) | hERG current change (%, negative = inhibition) at 1uM [%]
1 | C=CCn1c(SCC(=O)NCc2ccco2)nc2sc3c(c2c1=O)CCC3 | 1.48
2 | CCC1CCCCN1C(=O)COC(=O)c1cc2ccccc2cc1O (stereo not drawn) | 14.5
3 | O=C(Nc1cccc(NC(=O)c2sc3ccccc3c2Cl)c1)c1ccco1 | 3.79
4 | Cc1c(C(=O)Oc2ccc(Cl)cc2)n(C)oc1=O | 13.1
5 | CCC(C)COC(=O)C(C#N)c1nc2ccccc2nc1N1CCCCC1 (stereo not drawn) | 0.759
6 | CC(=O)Nc1ccc(S(=O)(=O)N2CCC(NC(=O)c3ccco3)CC2)cc1 | 9.57
7 | NS(=O)(=O)c1ccc(NC(=S)NC2CC2)cc1 | 10.9
8 | CCCCNC(=O)C1CCCN(S(=O)(=O)c2ccc(S(=O)(=O)NCC(C)C)cc2)C1 (stereo not drawn) | -3.36
9 | CCSc1nc2cc(OC)c(OC)cc2c(=O)n1CCc1ccccc1 | 2.31
10 | O=C(COc1ccccc1)NCC(c1ccco1)N1CCN(c2ccc(F)cc2)CC1 (stereo not drawn) | -2.86
11 | O=C(Cn1cc2c(n1)CCCCC2)Nc1ccccc1Br | 5.69
12 | N#Cc1ccc(CN2CCN(C(=O)c3cccc(S(=O)(=O)N4CCCCCC4)c3)CC2)cc1 | -51.3
13 | O=S(=O)(Nc1ccccc1)c1ccc(NS(=O)(=O)c2c(F)cccc2F)cc1 | 7.94
14 | O=C(C(NS(=O)(=O)c1cccs1)c1ccccc1)N1CCN(c2ccccc2F)CC1 (stereo not drawn) | 5.15
15 | Cc1[nH]nc(N=CC2=C(O)CC(C)(C)CC2=O)c1-c1ccccc1 | 6.06
16 | N/C(=N\OC(=O)Cc1ccc(-c2ccccc2)cc1)c1ccccn1 | 14.3
17 | Cc1cc(C(F)F)nn1CC(=O)Nc1cc([N+](=O)[O-])ccc1F | -2.48
18 | CCOC(=O)CSc1nnc(-c2c[nH]c3ccccc23)n1CC | -0.0361
19 | CN(Cc1nccs1)C(=O)CC1C(=O)NCCN1Cc1ccc(-c2ccccc2)cc1 (stereo not drawn) | 7.07
20 | CCN(CC)S(=O)(=O)c1cc(-c2nn(C)c(=O)c3ccccc23)ccc1C | 3.5
21 | CCCC1=C(C(=O)OCC)C(c2ccc(NC(C)=O)cc2)NC(=O)N1 (stereo not drawn) | 0.486
22 | Cc1cccc(CCNC(=O)COc2cc(=O)n(C)c3ccccc23)c1 | 6.76
23 | CCC(Oc1ccccc1)C(=O)Nc1ccccn1 (stereo not drawn) | 17.5

Row | Structure (SMILES) | hERG current change (%, negative = inhibition) at 1uM [%]
24 | CCCNC(=O)Nc1ccc(F)c(Cl)c1 | 7.95
25 | COc1cccc(C(C[N+](=O)[O-])c2c(C)[nH]n(-c3ccccc3)c2=O)c1 (stereo not drawn) | 16
26 | COc1ccccc1N1CCN(C(=O)C(=O)N/N=C/c2cccc(O)c2)CC1 | -0.578
27 | COc1ccc(NC(=O)N2CCN(CCC#N)CC2)cc1 | 11.6
28 | S=C(Nc1ccccc1Cl)Nc1ccc(Cl)cc1Cl | 12.4
29 | O=C(COc1ccccc1)N1CCN=C1SCc1cccnc1 | 17.3
30 | S=C(NC1CCCCC1)N1CCc2ccccc2C1 | 4.39
31 | CCCc1c(C(=O)Nc2ccc(C(F)(F)F)cc2)cnn1-c1ccccc1 | 14.4
32 | CCc1ccc(NC(=O)CN(c2ccc3c(c2)OCO3)S(=O)(=O)c2c(C)noc2C)cc1 | 9.89
33 | CN(Cc1ccccc1)S(=O)(=O)c1nnc(NC(=O)c2ccccc2F)s1 | -5.25
34 | O=C(NCc1cccs1)C1CCC(CNS(=O)(=O)c2cccs2)CC1 (stereo not drawn) | 13.4
35 | Cc1nc(NCC2CCCO2)c2nnn(Cc3c(F)cccc3Cl)c2n1 (stereo not drawn) | 10.2
36 | CC1CCCCC1NC(=O)COC(=O)Cc1ccc(Cl)cc1 (stereo not drawn) | 13.8
37 | c1ccc2nc(-c3nccs3)ccc2c1 | 1.85
38 | Cc1ccc(-n2nc3c(=O)n(CCCC(=O)N4CCC(C(N)=O)CC4)nc(C)c3c2C)cc1 | 16.5
39 | Cc1ccc(C(=O)NC2CC3CCCC(C2)N3Cc2ccccc2)cc1 (stereo not drawn) | -6.55
40 | COc1ccccc1NC(=S)NCCc1ccccc1 | 3.07
41 | COc1cccc(-c2nnc(-c3ccco3)o2)c1 | 14.6
42 | CCn1cc(C(=O)NC2CCC(C)CC2)c(=O)c2cc(S(=O)(=O)N3CCCCC3)ccc21 (stereo not drawn) | -5.66
43 | Cc1ccc(S(=O)(=O)N2CCN(Cc3ccccc3)CC2)c(C)c1N(C)S(=O)(=O)c1ccccc1 | 10.5
44 | Cc1cc(=O)oc2c(C)c(OC(C)C(=O)NCc3ccccn3)ccc12 (stereo not drawn) | 6.32
45 | CS(=O)(=O)N1CCC(C(=O)Nc2cccc(Cl)c2)CC1 | 13.9
46 | CC1CCCCC1Nc1ncnc2sccc12 (stereo not drawn) | 7.47

Row | Structure (SMILES) | hERG current change (%, negative = inhibition) at 1uM [%]
47 | CC(=O)c1cccc(NC(=O)Nc2nc(C)cc(C)n2)c1 | 14.8
48 | Cc1ccccc1-n1c(C)cc(/C=C2/C(=O)NC(=O)N(Cc3ccco3)C2=O)c1C | 8.72
49 | C/C(=N/NC(=O)C(C)n1nc(C)c([N+](=O)[O-])c1C)c1ccc(OCC(N)=O)cc1 (stereo not drawn) | 10.5
50 | CC(=O)Nc1ccc(N2CCCCC2)cc1 | 10.6
51 | O=C(COC(=O)c1ccc2c(c1)OCO2)Nc1ccccc1Cl | 6.58
52 | O=c1nc2sc3ccccc3n2c(=O)n1-c1cccc(Cl)c1 | 8
53 | CSc1ccc(CCNS(=O)(=O)c2ccc3c(c2)C(C)(C)C(=O)N3C)cc1 | 6.87
54 | CCC(C)NC(=O)Cn1cnc2sc(C)c(S(=O)(=O)N3CCN(c4ccccc4OC)CC3)c2c1=O (stereo not drawn) | 13.3
55 | CC(C)NS(=O)(=O)c1ccc(NC(=O)c2cccnc2)cc1 | 9.89
56 | Cc1cc(C)nc(NC2=NCC(=O)N2c2ccc3c(c2)OCCO3)n1 | 9.09
57 | Cc1ccc2c(c1)N(CC(=O)NCCCN1C(C)CCCC1C)C(=O)c1cccnc1O2 (stereo not drawn) | 7.37
58 | CNS(=O)(=O)c1cccc(C(=O)OCC(=O)c2cc(C)n(CC3CCCO3)c2C)c1 (stereo not drawn) | -7.08
59 | CCc1cc(=O)oc2c(C)c(OCC(=O)NCCCN3CCOCC3)ccc12 | 1.14
60 | CCC(C)C(NC(=O)c1ccccc1NC(=O)c1ccco1)C(=O)NNC(=O)c1ccncc1 (stereo not drawn) | 6.17
61 | CN(C)C(CNc1ccc(S(C)(=O)=O)cc1[N+](=O)[O-])Cc1ccccc1 (stereo not drawn) | -5.39
62 | Cc1ccc(S(=O)(=O)c2cc(N3CCOCC3)nc(-c3ccccc3)n2)cc1 | 10.9
63 | CCN(CC)c1ccc(/C=N/O)cc1 | 19
64 | CN(CCC#N)CC(=O)Nc1ccc(S(N)(=O)=O)cc1 | 9.08
65 | CCOC(=O)c1cc(C)[nH]c(=S)c1C#N | -10.6
66 | Oc1ccc(Nc2nc(-c3ccc4ccccc4c3)cs2)cc1 | 4.3
67 | NC(=O)NC1CCCc2c1[nH]c1ccc(Cl)cc21 (stereo not drawn) | 11.2
68 | Cl.OC(COCc1ccccc1)CN1CCN(c2ccccc2F)CC1 (stereo not drawn) | -7.31
69 | C(#CCN1CCOCC1)COCc1ccccc1.Cl | 14.5

Row | Structure (SMILES) | hERG current change (%, negative = inhibition) at 1uM [%]
70 | CCc1cccc(C)c1N(C(=O)Cn1c(COC)nc2ccccc21)C(C)COC (stereo not drawn) | 2.16
71 | CC1=NN(Cc2ccccc2)C(=O)C1C(c1ccccc1)C(C#N)C#N (stereo not drawn) | 9.32
72 | Cn1c(CNC(=O)c2ccco2)nnc1SCC(=O)Nc1ccccc1Cl | 2.28
73 | Clc1ccc2c(N/N=C/c3ccc(Br)cc3)ccnc2c1 | 18.5
74 | CCn1c2c(c3cc(Br)ccc31)CCC/C2=N\O | 3.59
75 | CCc1ccc(S(=O)(=O)Nc2cccc(-c3ccc4nncn4n3)c2)s1 | 7.31
76 | COc1ccc(CCNC(=O)c2cccc(S(=O)(=O)NC(C)c3ccccc3)c2)cc1 (stereo not drawn) | 5.6
77 | CCN(CC)C(=O)/C=C/c1ccc(OC)c(S(=O)(=O)N2CCCCC2)c1 | 3.26
78 | COc1ccc(C2(C(=O)NCCCN3CCOCC3)CCOCC2)cc1.Cl | 9.62
79 | Cn1c(SCc2nnc3n2CCCCC3)nc2ccccc21 | 9.34
80 | CC(C)(C)c1cc(-c2n[nH]c(=S)n2-c2ccc(Cl)cc2)n[nH]1 | 12.5
81 | CCC(Sc1nc2ccsc2c(=O)n1-c1ccc(Cl)c(C)c1)C(=O)NCc1ccco1 (stereo not drawn) | 1.88
82 | CCOC(=O)c1oc2c(C)c(O)ccc2c(=O)c1-c1nncn1-c1ccccc1 | 7.41
83 | CC1CN(C(=O)Cc2ccc(-c3ccccc3)cc2)CC(C)O1 (stereo not drawn) | 6.77
84 | CCOc1ccc(NC(=O)CN(C)C(=O)c2c(-c3ccccc3)noc2C)cc1OCC | 1.1
85 | CCc1ccc(NC(=O)C(=O)NCCN2CCN(Cc3ccc([N+](=O)[O-])cc3)CC2)cc1 | -67.4
86 | COc1cccc(-n2c(C)nnc2SCC#N)c1 | -7.48
87 | O=C(NCc1cccc(Cl)c1)C1=CC=CN2CCS(=O)(=O)N=C12 | 11.8
88 | O=C1N(CN2CCN(Cc3ccccc3)CC2)c2ccccc2C12OCCCO2 | 6.97
89 | CNC(=O)c1sc(-c2ccccn2)nc1C | 3.3
90 | CC1=C(C)CC(C(=O)Nc2cccc(Cl)c2)C(C(=O)O)C1 (stereo not drawn) | 5.17
